# Measurements reported in the supplement of paper PMC8728848.
# The other results are listed elsewhere or left out.
# Key:
# Experiment in all cases: glycan array binding signal (z-score within array); higher = stronger binding
# Details in all cases: glycan notation: IUPAC condensed, linker removed
# [1] = molecular target: Neu5Ac(a2-3)Gal(b1-4)GlcNAc(b1-6)[Gal(b1-3)]GalNAc
# Method in brief: (§1)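 The binding signal is a Z-score computed within each array. Data were drawn from 3228 arrays in the Consortium for Functional Glycomics database, restricted to those with a known protein sequence. Scores were averaged over arrays of the same protein sequence at different concentrations or buffers, and over linkers, and negative values can be taken as non-binding.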
# [2] = molecular target: Neu5Ac(a2-3)Gal(b1-4)GlcNAc(b1-6)[Neu5Ac(a2-3)Gal(b1-3)]GalNAc
# Method in brief: as §1
# [3] = molecular target: Neu5Ac(a2-3)Gal(b1-4)GlcNAc6S
# Method in brief: as §1
# [4] = molecular target: Neu5Ac(a2-3)Gal(b1-4)[Fuc(a1-3)]GlcNAc
# Method in brief: as §1
# [5] = molecular target: Neu5Ac(a2-3)Gal(b1-4)[Fuc(a1-3)]GlcNAc(b1-3)Gal
# Method in brief: as §1
# [6] = molecular target: Neu5Ac(a2-3)Gal(b1-4)[Fuc(a1-3)]GlcNAc(b1-3)Gal(b1-4)GlcNAc
# Method in brief: as §1
# [7] = molecular target: Neu5Ac(a2-3)Gal(b1-4)[Fuc(a1-3)]GlcNAc(b1-3)Gal(b1-4)[Fuc(a1-3)]GlcNAc(b1-3)Gal(b1-4)[Fuc(a1-3)]GlcNAc
# Method in brief: as §1
# [8] = molecular target: Neu5Ac(a2-3)Gal(b1-4)[Fuc(a1-3)]GlcNAc(b1-6)[Gal(b1-3)]GalNAc
# Method in brief: as §1
# [9] = molecular target: Neu5Ac(a2-3)Gal(b1-4)[Fuc(a1-3)]GlcNAc6S
# Method in brief: as §1
# [10] = molecular target: Neu5Ac(a2-3)Gal6S(b1-4)GlcNAc
# Method in brief: as §1
# [11] = molecular target: Neu5Ac(a2-3)Gal6S(b1-4)[Fuc(a1-3)]GlcNAc
# Method in brief: as §1
# Neu5Ac(a2-3)GalNAc = molecular target: Neu5Ac(a2-3)GalNAc
# Method in brief: as §1
# [12] = molecular target: Neu5Ac(a2-3)GalNAc(b1-4)GlcNAc
# Method in brief: as §1
# [13] = molecular target: Neu5Ac(a2-3)[GalNAc(b1-4)]Gal(b1-4)Glc
# Method in brief: as §1
# [14] = molecular target: Neu5Ac(a2-3)[GalNAc(b1-4)]Gal(b1-4)GlcNAc
# Method in brief: as §1
# [15] = molecular target: Neu5Ac(a2-3)[Neu5Ac(a2-6)]GalNAc
# Method in brief: as §1
# Neu5Ac(a2-6)Gal = molecular target: Neu5Ac(a2-6)Gal
# Method in brief: as §1
# Neu5Ac(a2-6)Gal(b1-4)Glc = molecular target: Neu5Ac(a2-6)Gal(b1-4)Glc
# Method in brief: as §1
# [16] = molecular target: Neu5Ac(a2-6)Gal(b1-4)GlcNAc
# Method in brief: as §1
# [17] = molecular target: Neu5Ac(a2-6)Gal(b1-4)GlcNAc(b1-2)Man(a1-3)[Gal(b1-4)GlcNAc(b1-2)Man(a1-6)]Man(b1-4)GlcNAc(b1-4)GlcNAc
# Method in brief: as §1
# [18] = molecular target: Neu5Ac(a2-6)Gal(b1-4)GlcNAc(b1-2)Man(a1-3)[GlcNAc(b1-2)Man(a1-6)]Man(b1-4)GlcNAc(b1-4)GlcNAc
# Method in brief: as §1
# [19] = molecular target: Neu5Ac(a2-6)Gal(b1-4)GlcNAc(b1-2)Man(a1-3)[GlcNAc(b1-2)Man(b1-4)GlcNAc(b1-2)Man(a1-6)]Man(b1-4)GlcNAc(b1-4)GlcNAc
# Method in brief: as §1
# [20] = molecular target: Neu5Ac(a2-6)Gal(b1-4)GlcNAc(b1-2)Man(a1-3)[Neu5Ac(a2-6)Gal(b1-4)GlcNAc(b1-2)Man(a1-6)]Man(b1-4)GlcNAc(b1-4)GlcNAc
# Method in brief: as §1
# [21] = molecular target: Neu5Ac(a2-6)Gal(b1-4)GlcNAc(b1-2)Man(a1-6)[Gal(b1-4)GlcNAc(b1-2)Man(a1-3)]Man(b1-4)GlcNAc(b1-4)GlcNAc
# Method in brief: as §1
# [22] = molecular target: Neu5Ac(a2-6)Gal(b1-4)GlcNAc(b1-2)Man(a1-6)[GlcNAc(b1-2)Man(a1-3)]Man(b1-4)GlcNAc(b1-4)GlcNAc
# Method in brief: as §1
# [23] = molecular target: Neu5Ac(a2-6)Gal(b1-4)GlcNAc(b1-3)Gal(b1-4)GlcNAc
# Method in brief: as §1
# [24] = molecular target: Neu5Ac(a2-6)Gal(b1-4)GlcNAc(b1-3)Gal(b1-4)[Fuc(a1-3)]GlcNAc(b1-3)Gal(b1-4)[Fuc(a1-3)]GlcNAc
# Method in brief: as §1
# [25] = molecular target: Neu5Ac(a2-6)Gal(b1-4)GlcNAc6S
# Method in brief: as §1
# Neu5Ac(a2-6)GalNAc = molecular target: Neu5Ac(a2-6)GalNAc
# Method in brief: as §1
# [26] = molecular target: Neu5Ac(a2-6)GalNAc(b1-4)GlcNAc
# Method in brief: as §1
# Neu5Ac(a2-8)Neu5Ac = molecular target: Neu5Ac(a2-8)Neu5Ac
# Method in brief: as §1
# [27] = molecular target: Neu5Ac(a2-8)Neu5Ac(a2-3)Gal(b1-4)Glc
# Method in brief: as §1
# [28] = molecular target: Neu5Ac(a2-8)Neu5Ac(a2-3)[GalNAc(b1-4)]Gal(b1-4)Glc
# Method in brief: as §1
# [29] = molecular target: Neu5Ac(a2-8)Neu5Ac(a2-8)Neu5Ac
# Method in brief: as §1
# [30] = molecular target: Neu5Ac(a2-8)Neu5Ac(a2-8)Neu5Ac(a2-3)Gal(b1-4)Glc
# Method in brief: as §1
# [31] = molecular target: Neu5Ac(a2-8)Neu5Ac(a2-8)Neu5Ac(a2-3)[GalNAc(b1-4)]Gal(b1-4)Glc
# Method in brief: as §1
# [32] = molecular target: Neu5Ac(a2-8)Neu5Ac(a2-8)Neu5Ac(a2-8)Neu5Ac(a2-3)[GalNAc(b1-4)]Gal(b1-4)Glc
# Method in brief: as §1
# Neu5Ac(b1-6)GalNAc = molecular target: Neu5Ac(b1-6)GalNAc
# Method in brief: as §1
# [33] = molecular target: Neu5Ac(b2-6)Gal(b1-4)GlcNAc
# Method in brief: as §1
# Neu5Ac(b2-6)GalNAc = molecular target: Neu5Ac(b2-6)GalNAc
# Method in brief: as §1
# [34] = molecular target: Neu5Ac9Ac(a2-6)Gal(b1-4)GlcNAc
# Method in brief: as §1
# [35] = molecular target: Neu5Gc(a2-3)Gal(b1-3)GlcNAc
# Method in brief: as §1
# [36] = molecular target: Neu5Gc(a2-3)Gal(b1-3)[Fuc(a1-4)]GlcNAc
# Method in brief: as §1
# Neu5Gc(a2-3)Gal(b1-4)Glc = molecular target: Neu5Gc(a2-3)Gal(b1-4)Glc
# Method in brief: as §1
# [37] = molecular target: Neu5Gc(a2-3)Gal(b1-4)GlcNAc
# Method in brief: as §1
# [38] = molecular target: Neu5Gc(a2-3)Gal(b1-4)[Fuc(a1-3)]GlcNAc
# Method in brief: as §1
# [39] = molecular target: Neu5Gc(a2-6)Gal(b1-4)GlcNAc
# Method in brief: as §1
# Neu5Gc(a2-6)GalNAc = molecular target: Neu5Gc(a2-6)GalNAc
# Method in brief: as §1
# [40] = molecular target: Neu5Gc(b2-6)Gal(b1-4)GlcNAc
# Method in brief: as §1
binder,measurement,setting,value
CD83 (Homo sapiens) (protein) MSRGLQLLLLSCAYSLAPATPEVKVACSEDVDLPCTAPWDPQVPYTVSWVKLLEGGEERMETPQEDHLRGQHYHQKGQNGSFDAPNERPYSLKIRNTTSCNSGTYRCTLQDPDGQRNLSGKVILRVTGCPAQRKEETFKKYRAETSEQKLISEEDLSRGSDDDDKAEPRGP,glycan array binding signal (z-score),[1],-0.14
same,glycan array binding signal (z-score),[2],-0.237
same,glycan array binding signal (z-score),[3],0.045
same,glycan array binding signal (z-score),[4],-0.289
same,glycan array binding signal (z-score),[5],-0.365
same,glycan array binding signal (z-score),[6],0.381
same,glycan array binding signal (z-score),[7],-0.243
same,glycan array binding signal (z-score),[8],-0.12
same,glycan array binding signal (z-score),[9],-0.229
same,glycan array binding signal (z-score),[10],-0.118
same,glycan array binding signal (z-score),[11],-0.131
same,glycan array binding signal (z-score),Neu5Ac(a2-3)GalNAc,-0.207
same,glycan array binding signal (z-score),[12],-0.291
same,glycan array binding signal (z-score),[13],-0.08
same,glycan array binding signal (z-score),[14],-0.051
same,glycan array binding signal (z-score),[15],0.015
same,glycan array binding signal (z-score),Neu5Ac(a2-6)Gal,-0.277
same,glycan array binding signal (z-score),Neu5Ac(a2-6)Gal(b1-4)Glc,-0.208
same,glycan array binding signal (z-score),[16],-0.02
same,glycan array binding signal (z-score),[17],-0.14
same,glycan array binding signal (z-score),[18],-0.279
same,glycan array binding signal (z-score),[19],-0.155
same,glycan array binding signal (z-score),[20],-0.274
same,glycan array binding signal (z-score),[21],-0.15
same,glycan array binding signal (z-score),[22],-0.283
same,glycan array binding signal (z-score),[23],-0.298
same,glycan array binding signal (z-score),[24],0.014
same,glycan array binding signal (z-score),[25],-0.123
same,glycan array binding signal (z-score),Neu5Ac(a2-6)GalNAc,-0.209
same,glycan array binding signal (z-score),[26],-0.217
same,glycan array binding signal (z-score),Neu5Ac(a2-8)Neu5Ac,0.194
same,glycan array binding signal (z-score),[27],1.41
same,glycan array binding signal (z-score),[28],0.494
same,glycan array binding signal (z-score),[29],2.22
same,glycan array binding signal (z-score),[30],3.7
same,glycan array binding signal (z-score),[31],2.88
same,glycan array binding signal (z-score),[32],0.341
same,glycan array binding signal (z-score),Neu5Ac(b1-6)GalNAc,-0.268
same,glycan array binding signal (z-score),[33],-0.351
same,glycan array binding signal (z-score),Neu5Ac(b2-6)GalNAc,-0.317
same,glycan array binding signal (z-score),[34],0.02
same,glycan array binding signal (z-score),[35],0.93
same,glycan array binding signal (z-score),[36],-0.042
same,glycan array binding signal (z-score),Neu5Gc(a2-3)Gal(b1-4)Glc,1.04
same,glycan array binding signal (z-score),[37],0.791
same,glycan array binding signal (z-score),[38],-0.098
same,glycan array binding signal (z-score),[39],0.595
same,glycan array binding signal (z-score),Neu5Gc(a2-6)GalNAc,0.473
same,glycan array binding signal (z-score),[40],-0.214
